Measurements reported in the supplement of paper PMC12217912.
The other results are listed elsewhere or left out. The full chains were built here from the parent and the listed change. Values near 0.05 are background.

B1: TEV protease; numbered along this chain (parent)
chain: MGESLFKGPRDYNPISSSICHLTNESDGHTTSLYGIGFGPFIITNKHLFRRNNGTLVVQSLHGVFKVKDTTTLQQHLVDGRDMIIIRMPKDFPPFPQKLKFREPQREERICLVTTNFQTKSMSSMVSDTSCTFPSGDGIFWKHWIQTKDGQCGSPLVSTRDGFIVGIHSASNFTNTNNYFTSVPKNFMELLTNQEAQQWVSGWRLNADSVLWGGHKVFMVKPEEPFQPVKEATQL

Variants of: B1
Assay: raw area under fraction-flipped curve 0-4 h after induction (AUC4h, not background-subtracted), DNA-recorder readout of cleavage of the substrate (dimensionless); higher = more cleavage of the substrate by the protease variant
Conditions: temperature: 34 °C; time window: 0-4 h after rhamnose induction
Method: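 In vivo DNA recorder in E. coli TOP10(DE3) ΔrhaA at 34 °C. Each TEVp single-site mutant (parent TEVp 0) is paired with a single-site variant of the 7-mer TEVs (canonical ENLYFQ|S). The substrate sits between flexible linkers in a Bxb1-sfGFP-TEVs-SsrA fusion, so cleavage stabilises Bxb1 and speeds flipping of a recombination array, read by NGS. The value is the raw area under the fraction-flipped curve over 0-4 h after rhamnose induction (AUC4h), with ≥20 reads per time point. It is not background-subtracted; inactive controls average about 0.047.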
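Also: Bxb1 expression induced with 0.2% (w/v) L-rhamnose at OD600 near 0.5, cultures sampled hourly, flipped fraction per protease–substrate barcode pair counted by paired-end Illumina sequencing.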

| Variant | area with substrate EALYFQS | area with substrate EELYFQS | area with substrate EILYFQS | area with substrate ELLYFQS | area with substrate EMLYFQS | area with substrate ERLYFQS | area with substrate ESLYFQS | area with substrate EVLYFQS | area with substrate EYLYFQS | area with substrate EDLYFQS |
| --- | --- | --- | --- | --- | --- | --- | --- | --- | --- | --- |
| T147K | 0.0613 | 0.0531 | 0.06 | 0.0677 | 0.0649 | 0.0601 | 0.0545 | 0.055 | 0.0628 |  |
| K148H | 0.088 | 0.0975 | 0.0781 | 0.109 | 0.0799 | 0.0803 | 0.0815 |  |  | 0.101 |
| D149L | 0.0835 |  | 0.0591 |  |  | 0.0793 | 0.0621 | 0.0733 |  |  |
| G150D | 0.0672 | 0.0662 |  |  |  |  | 0.0564 | 0.059 |  |  |
| G150I | 0.0601 | 0.0554 | 0.0521 | 0.0597 | 0.0633 | 0.0533 | 0.063 | 0.0606 | 0.0541 | 0.0634 |
| Q151D | 0.148 |  | 0.124 | 0.0833 |  | 0.111 | 0.0893 | 0.0995 |  |  |
| G153K | 0.0621 | 0.0473 |  |  |  |  |  | 0.038 |  |  |
| S154K | 0.087 | 0.121 | 0.0738 |  | 0.129 | 0.0671 | 0.09 | 0.0773 |  | 0.126 |
| S154T | 0.0736 | 0.0871 | 0.116 | 0.0904 | 0.128 | 0.0982 | 0.114 | 0.109 |  |  |
| S154Y | 0.0807 |  |  |  | 0.0826 |  | 0.0849 |  |  |  |
| V157P | 0.0469 |  | 0.0504 | 0.0538 |  | 0.0389 | 0.0582 | 0.0645 |  |  |
| V157Q | 0.0921 |  | 0.0877 |  | 0.0865 |  |  | 0.074 |  |  |
| S158F | 0.049 |  |  |  | 0.0465 |  |  | 0.0434 |  |  |
| S158P | 0.0554 | 0.0676 | 0.0419 |  | 0.0561 |  | 0.0535 | 0.0473 | 0.0512 | 0.049 |
| T159N | 0.121 |  |  |  | 0.121 |  |  |  |  |  |
| S169E | 0.0554 | 0.0614 | 0.0439 |  |  |  | 0.0595 | 0.05 |  |  |
| A170H | 0.073 |  |  | 0.0561 |  |  | 0.0523 | 0.0484 |  | 0.0608 |
| S171A | 0.102 |  | 0.0795 |  |  | 0.0926 |  | 0.0824 |  |  |

| Variant | area with substrate EALYFQS | area with substrate EELYFQS | area with substrate EILYFQS | area with substrate ELLYFQS | area with substrate EMLYFQS | area with substrate ERLYFQS | area with substrate ESLYFQS | area with substrate EVLYFQS | area with substrate EYLYFQS | area with substrate EDLYFQS |
| --- | --- | --- | --- | --- | --- | --- | --- | --- | --- | --- |
| S171Q | 0.063 | 0.0622 |  |  |  |  | 0.0567 | 0.0791 |  |  |
| N172G | 0.0631 |  | 0.0536 | 0.0663 | 0.055 |  | 0.0693 | 0.0562 | 0.071 | 0.0794 |
| N172I | 0.0459 |  | 0.0648 |  |  | 0.0497 | 0.0715 |  |  |  |
| T174Q | 0.105 | 0.117 | 0.0685 |  |  | 0.092 | 0.105 | 0.0823 |  |  |
| T174W | 0.153 | 0.0378 | 0.109 |  |  |  | 0.0902 |  |  |  |
| N175H | 0.115 |  | 0.083 |  |  |  | 0.0667 | 0.0969 |  |  |
| N175I | 0.0519 |  | 0.0599 | 0.0534 |  | 0.0616 | 0.0889 | 0.109 |  |  |
| N178D | 0.0688 |  |  | 0.0754 | 0.0685 |  | 0.0668 |  | 0.0644 |  |
| N178G | 0.123 | 0.15 |  | 0.105 | 0.13 | 0.127 | 0.114 | 0.118 |  |  |
| N178H | 0.185 |  | 0.134 |  | 0.167 |  |  | 0.12 | 0.133 |  |
| Y179F | 0.107 |  | 0.0912 |  |  |  |  | 0.0702 |  |  |
| S182I | 0.0999 | 0.115 | 0.0914 | 0.0825 |  | 0.0855 | 0.0907 | 0.0808 | 0.0751 | 0.113 |
| V183Q | 0.0678 | 0.0472 |  | 0.0533 |  | 0.0524 | 0.0601 | 0.044 |  |  |
| N186D | 0.127 | 0.154 |  | 0.102 | 0.102 |  | 0.102 |  |  |  |
| L190A | 0.12 | 0.119 |  |  |  |  | 0.133 | 0.148 |  |  |
| L191E | 0.0666 |  | 0.0614 |  |  | 0.0478 | 0.0495 | 0.0546 |  | 0.0578 |
| L191S | 0.0557 | 0.0622 |  | 0.0361 |  | 0.0609 | 0.0607 |  |  |  |
| N193L | 0.106 |  | 0.0664 |  |  |  | 0.0867 | 0.0819 |  | 0.123 |

Same assay, conditions: temperature: 34 °C; time window: 0-4 h after rhamnose induction

| Variant | area with substrate EFLYFQS | area with substrate EGLYFQS | area with substrate EPLYFQS | area with substrate EQLYFQS | area with substrate EKLYFQS | area with substrate ETLYFQS | area with substrate EWLYFQS | area with substrate ECLYFQS | area with substrate EHLYFQS |
| --- | --- | --- | --- | --- | --- | --- | --- | --- | --- |
| K148H | 0.075 | 0.0886 | 0.0647 | 0.0778 |  |  |  |  |  |
| D149L | 0.0833 | 0.0592 | 0.0653 |  | 0.0782 | 0.0937 | 0.0693 |  |  |
| G150D |  |  |  |  |  |  | 0.0614 | 0.0483 |  |
| G150I |  |  | 0.0497 | 0.062 | 0.0617 | 0.0506 | 0.0529 |  | 0.0534 |
| Q151D | 0.0896 | 0.0846 | 0.118 | 0.127 | 0.102 | 0.0808 | 0.112 |  | 0.101 |
| G153K |  |  |  |  |  | 0.0302 |  |  |  |
| S154K | 0.106 |  | 0.0894 | 0.0966 | 0.0945 | 0.081 |  |  | 0.183 |
| S154T |  |  | 0.0737 |  |  |  | 0.0947 |  | 0.118 |
| S154Y |  | 0.0856 | 0.12 |  |  | 0.0792 | 0.0786 |  | 0.101 |
| V157P |  | 0.0594 | 0.0089 | 0.0456 | 0.0325 |  | 0.0474 |  |  |
| V157Q |  | 0.0713 | 0.0887 | 0.102 | 0.088 |  |  | 0.0808 | 0.0718 |
| S158F |  | 0.0476 |  | 0.0561 |  | 0.049 |  | 0.0389 |  |
| S158P | 0.0596 | 0.0586 | 0.0477 |  | 0.0558 |  | 0.0384 |  | 0.0403 |
| T159N |  |  | 0.134 | 0.116 |  |  |  | 0.091 |  |
| S169E |  |  | 0.059 | 0.0606 |  |  |  | 0.0554 |  |
| A170H |  |  |  |  |  | 0.0715 |  |  |  |
| S171A |  |  | 0.0854 | 0.095 |  |  |  | 0.0471 |  |
| S171Q |  |  |  |  |  |  |  |  | 0.0675 |

| Variant | area with substrate EFLYFQS | area with substrate EGLYFQS | area with substrate EPLYFQS | area with substrate EQLYFQS | area with substrate EKLYFQS | area with substrate ETLYFQS | area with substrate EWLYFQS | area with substrate ECLYFQS | area with substrate EHLYFQS |
| --- | --- | --- | --- | --- | --- | --- | --- | --- | --- |
| N172G |  |  | 0.0513 |  | 0.0706 |  | 0.0685 |  |  |
| N172I |  |  |  | 0.0565 | 0.0578 |  |  |  | 0.0616 |
| T174Q |  |  |  |  | 0.0891 | 0.0956 |  | 0.073 |  |
| T174W | 0.0936 | 0.0858 | 0.122 |  | 0.0796 |  | 0.0884 |  |  |
| N175H |  |  | 0.107 | 0.124 |  |  | 0.07 | 0.0926 |  |
| N175I | 0.0769 |  | 0.0734 |  |  |  |  | 0.0523 |  |
| N178D |  |  |  |  |  |  |  | 0.0624 |  |
| N178G |  |  |  |  | 0.116 |  | 0.0976 | 0.099 |  |
| N178H |  | 0.0865 | 0.143 | 0.132 | 0.124 | 0.161 | 0.117 |  |  |
| Y179F |  | 0.124 |  |  |  |  |  | 0.0895 |  |
| S182I | 0.0965 |  | 0.111 | 0.111 | 0.075 |  |  |  |  |
| V183Q |  | 0.05 | 0.0522 |  | 0.0572 |  | 0.0609 |  | 0.0595 |
| N186D | 0.131 | 0.104 | 0.0962 | 0.13 |  | 0.128 | 0.0827 |  |  |
| L190A | 0.118 |  | 0.114 | 0.0971 |  | 0.159 |  |  |  |
| L191E | 0.0578 |  | 0.0665 | 0.0402 |  | 0.0677 | 0.0624 |  | 0.0971 |
| L191S |  |  |  | 0.0596 | 0.0419 |  | 0.0709 |  | 0.0594 |
| N193L |  |  | 0.1 | 0.08 |  | 0.101 |  |  |  |
